Test results: PMC9304783 (2022)

B1: STIM1_([…])-CFP [not stated] / YFP-CAD [human] (parent complex)
chain 1: LSHSHSEKATGTSSGANSEESTAAEFCRIDKPLCHSEDEKLSFEAVRNIHKLMDDDANGDVDVEESDEFLREDLNYHDPTVKHSTFHGEDKLISVEDLWKAWKSSEVYNWTVDEVVQWLITYVELPQYEETFRKLQLSGHAMPRLAVTNTTMTGTVLKMTDRSHRQKLQLKALDTVLFGPPLLTRHNHLKDFMLVVSIVIGVGGCWFAYIQNRYSKEHMKKMMKDLEGLHRAEQSLHDLQERLHKAQEEHRTVEVEKVHLEKKLRDEINLAKQEAQRLKELREGTENERSRQKYAEEELEQVREALRKAEKELESHSSWY
chain 2: not shown

Variants of: B1
Assay: two-component E-FRET assay in HEK cells; resting state (pre-ionomycin), 2 Ca; read off a plot

Variant	ratio to parent
chain 1 E227A	~0.6
chain 1 G228A	~0.92
chain 1 K216A	~1.2
chain 1 H218A	~1.1
chain 1 E248A	~1.3
chain 1 D225A	~0.07
chain 1 K220A	~1.1
chain 1 E241A	~1.6
chain 1 H237A	~1
chain 1 E217A	~0.7
chain 1 K224A	~0.93
chain 1 H244A	~1.2
chain 1 L226A	~0.03
chain 1 E233A	~0.78
chain 1 D238A	~0.68
chain 1 L229A	~0.02
chain 1 H230A	~0.95
chain 1 K245A	~0.87
chain 1 K221A	~0.9

Second part, the variant after the results:

ratio to parent	Variant
~0.85	chain 1 Q240A
~0.82	chain 1 S235A
~1.1	chain 1 N212A
~0.25	chain 1 L236A
~0.9	chain 1 Y214A
~1.3	chain 1 R213A
~0.65	chain 1 M223A
~0.88	chain 1 R231A
~0.9	chain 1 L239A
~1.1	chain 1 Q247A
~1.1	chain 1 Q211A
~0.05	chain 1 M222A
~1.2	chain 1 R242A
~1.1	chain 1 S215A
~0.85	chain 1 M219A
~0.7	chain 1 Q234A
